{"source": "patent US20210317230A1", "about": "(HANGZHOU SUMGEN BIOTECH, published 2021)", "target": "T1, CD47-His (UniProt Q08722 partial chain, limits assumed)", "T1 construct": "also called target antigen CD47; not shown: His tag", "assay": "ELISA, CD47-His coated at 1 µg/ml, anti-human IgG HRP detection", "data": [{"binder": "SS002M91 fusion protein (M91 fused with IgG1-FC) (Fc fusion) ELQVIQPDKSVLVAAGETATLRCTATSLLPVGPIQWFRGAGPGRQLIYNQKDGHFPRVTTASDLTKRNNMDFSINIGNITPADAGTYYCVKFRKGSPDDIEFKSGAGTELSVRAKPSL[human IgG1 Fc left out]", "values": [{"measurement": "EC50", "result": 0.072, "unit": "nM"}]}]}
